Experimental data reported in patent publication US20220049021A1 (Gilead, published 2022).
Like-named read-outs stand apart in the source and are kept apart here.

T1: human FLT3 on AML5 cells (human, UniProt P36888 27-993)
T1 sequence (looked up): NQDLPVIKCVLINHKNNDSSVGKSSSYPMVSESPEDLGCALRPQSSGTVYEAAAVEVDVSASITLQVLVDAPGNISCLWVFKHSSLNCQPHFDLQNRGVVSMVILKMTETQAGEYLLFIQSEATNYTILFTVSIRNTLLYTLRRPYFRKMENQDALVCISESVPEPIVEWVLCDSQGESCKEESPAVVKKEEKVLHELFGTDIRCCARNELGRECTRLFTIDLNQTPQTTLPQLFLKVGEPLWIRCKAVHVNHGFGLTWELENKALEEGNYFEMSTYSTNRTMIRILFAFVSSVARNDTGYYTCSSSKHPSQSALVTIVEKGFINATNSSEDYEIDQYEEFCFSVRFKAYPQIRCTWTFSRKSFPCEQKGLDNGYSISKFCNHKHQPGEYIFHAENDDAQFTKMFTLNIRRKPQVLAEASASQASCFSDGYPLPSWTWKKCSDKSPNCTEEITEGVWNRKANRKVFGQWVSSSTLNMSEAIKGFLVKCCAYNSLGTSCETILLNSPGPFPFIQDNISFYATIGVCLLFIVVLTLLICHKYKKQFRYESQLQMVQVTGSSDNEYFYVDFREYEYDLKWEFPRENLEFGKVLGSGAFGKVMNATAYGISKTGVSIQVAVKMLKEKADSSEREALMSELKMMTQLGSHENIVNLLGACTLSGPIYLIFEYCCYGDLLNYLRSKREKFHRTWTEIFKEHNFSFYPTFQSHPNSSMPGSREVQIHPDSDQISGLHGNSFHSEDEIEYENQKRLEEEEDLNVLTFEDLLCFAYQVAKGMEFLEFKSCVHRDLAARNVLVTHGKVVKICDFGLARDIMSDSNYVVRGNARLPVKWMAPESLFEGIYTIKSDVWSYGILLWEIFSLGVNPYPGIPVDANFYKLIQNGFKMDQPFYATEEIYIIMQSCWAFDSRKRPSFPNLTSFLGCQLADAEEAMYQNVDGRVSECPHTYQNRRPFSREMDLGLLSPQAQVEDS


Assays:
human FLT3 on AML5 cells [1] = biological target: T1, human FLT3 on AML5 cells; test: cell-based or functional assay
[2] = biological target: T2, recombinant human C1q protein (Fitzgerald) (human, UniProt P02745; P02746; P02747, limits assumed); test: ELISA; test protein immobilised in serial dilution, recombinant human C1q added, anti-C1q-HRP
T2 construct: also called human recombinant complement protein, C1q
T2 sequence (P02745 23-245 limits assumed, chain 1 of 3): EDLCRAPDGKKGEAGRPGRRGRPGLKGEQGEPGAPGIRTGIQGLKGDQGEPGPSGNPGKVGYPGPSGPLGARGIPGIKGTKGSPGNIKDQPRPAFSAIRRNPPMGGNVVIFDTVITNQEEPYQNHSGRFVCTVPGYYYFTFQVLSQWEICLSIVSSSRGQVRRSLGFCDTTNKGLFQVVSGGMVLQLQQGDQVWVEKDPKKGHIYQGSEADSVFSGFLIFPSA
T2 sequence (P02746 28-253 limits assumed, chain 2 of 3, further chain): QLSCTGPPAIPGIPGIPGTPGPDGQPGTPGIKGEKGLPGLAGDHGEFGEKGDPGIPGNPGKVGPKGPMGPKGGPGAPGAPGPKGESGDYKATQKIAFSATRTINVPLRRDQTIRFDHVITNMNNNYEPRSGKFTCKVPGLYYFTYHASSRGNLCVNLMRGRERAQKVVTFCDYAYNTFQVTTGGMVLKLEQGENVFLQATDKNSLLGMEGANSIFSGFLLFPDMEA
T2 sequence (P02747 29-245 limits assumed, chain 3 of 3, further chain): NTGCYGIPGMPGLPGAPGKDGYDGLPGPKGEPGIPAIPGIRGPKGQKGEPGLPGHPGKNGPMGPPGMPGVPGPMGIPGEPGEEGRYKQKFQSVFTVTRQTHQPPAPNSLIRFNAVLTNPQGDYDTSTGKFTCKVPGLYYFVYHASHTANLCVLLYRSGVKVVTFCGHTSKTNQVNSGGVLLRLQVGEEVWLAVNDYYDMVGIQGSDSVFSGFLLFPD

human FLT3 on AML5 cells [3] = biological target: T1, human FLT3 on AML5 cells; test: cell-based or functional assay; remark: listed apart in the source

| Binder | EC50 (nM), AML5 Proliferation Assay (human FLT3 on AML5 cells [1]) [nM] | EC50 (nM), AML5 Proliferation Assay (human FLT3 on AML5 cells [3]) [nM] | binding result [2] |
| --- | --- | --- | --- |
| human FLT3-ligand human IgG4 (S228P/L235E) fusion protein (SEQ ID NO:3) (Fc fusion) TQDCSFQHSPISSDFAVKIRELSDYLLQDYPVTVASNLQDEELCGGLWRLVLAQRWMERLKTVAGSKMQGLLERVNTEIHFVTKCAFQPPPSCLRFVQTNISRLLQETSEQLVALKPWITRQNFSRCLELQCQPDSSTLPPPWSPRPLEATAPTAPQ[in this place human IgG4 Fc with changes] | 0.088 |  |  |
| human FLT3-ligand (Δ5 amino acid) human IgG4 (S228P/F234A/L235A) fusion protein (SEQ ID NO:6) (Fc fusion, also called FLT3L (Δ C-term 5aa (PTAPQ))-hG4 S228P/F234A/L235A) TQDCSFQHSPISSDFAVKIRELSDYLLQDYPVTVASNLQDEELCGGLWRLVLAQRWMERLKTVAGSKMQGLLERVNTEIHFVTKCAFQPPPSCLRFVQTNISRLLQETSEQLVALKPWITRQNFSRCLELQCQPDSSTLPPPWSPRPLEATA[in this place human IgG4 Fc with S228P F234A L235A (EU numbers)] | 0.078 | 0.048 | no binding (tested: 94 nM (top of the titration)) |

More lines, main results first:

| EC50 (nM), AML5 Proliferation Assay (human FLT3 on AML5 cells [1]) [nM] | EC50 (nM), AML5 Proliferation Assay (human FLT3 on AML5 cells [3]) [nM] | Binder | binding result [2] |
| --- | --- | --- | --- |
| 0.073 |  | human FLT3-ligand human IgG4 (S228P/F234A/L235A) fusion protein (SEQ ID NO:4) (Fc fusion, also called FLT3L ECD-hG4 S228P/F234A/L235A) TQDCSFQHSPISSDFAVKIRELSDYLLQDYPVTVASNLQDEELCGGLWRLVLAQRWMERLKTVAGSKMQGLLERVNTEIHFVTKCAFQPPPSCLRFVQTNISRLLQETSEQLVALKPWITRQNFSRCLELQCQPDSSTLPPPWSPRPLEATAPTAPQ[in this place human IgG4 Fc with S228P F234A L235A (EU numbers)] | no binding (tested: 94 nM (top of the titration)) |
| 0.075 |  | human FLT3-ligand (Δ10 amino acid) human IgG4 (S228P/F234A/L235A) fusion protein (SEQ ID NO:8) (Fc fusion) TQDCSFQHSPISSDFAVKIRELSDYLLQDYPVTVASNLQDEELCGGLWRLVLAQRWMERLKTVAGSKMQGLLERVNTEIHFVTKCAFQPPPSCLRFVQTNISRLLQETSEQLVALKPWITRQNFSRCLELQCQPDSSTLPPPWSPRP[in this place human IgG4 Fc with S228P F234A L235A (EU numbers)] | no binding (tested: 94 nM (top of the titration)) |
